From patent US11098051B2 (priority 2016, dated 2021)

Key:
[1] = tested on: influenza virus H3N2 (NA_VIR_H3N2); test: microbe, parasite or virus in culture; type: cell-based; conditions: unidentified influenza virus, H3N2, MDCK, read-out: NA_VIR_H3N2 EC50
[2] = tested on: influenza virus H1N1 (NA_VIR_H1N1); test: microbe, parasite or virus in culture; type: cell-based; conditions: unidentified influenza virus, H1N1, MDCK, read-out: NA_VIR_H1N1 EC50

SMILES: O=C1c2c(O)c(=O)cnn2[C@H](C(c2cccc(F)c2)c2cccc(F)c2)N2CCCCN12 [Example 8, (R)-12-(bis(3-fluorophenyl)methyl)-4-hydroxy-7,8,9,10-tetrahydro-12H-dipyridazino[1,2-a:1′,6′-d][1,2,4]triazine-3,5-dione]
- EC50 [1]: 1600 nM

SMILES: O=C1c2c(O)c(=O)cnn2C(C(c2cccc(F)c2)c2cccc(F)c2)N2CCCCCN12 (centres unmarked) [Example 7, 13-(bis(3-fluorophenyl)methyl)-4-hydroxy-8,9,10,11-tetrahydro-7H,13H-pyridazino[1′,6′:4,5][1,2,4]triazino[1,2-a][1,2]diazepine-3,5-dione]
- EC50 [2]: 590 nM
- EC50 [1]: 1600 nM

SMILES: O=C1c2c(O)c(=O)cnn2C(C(c2ccccc2)c2ccccc2)N2CCCCCN12 (centres unmarked) [Example 6, 13-benzhydryl-4-hydroxy-8,9,10,11-tetrahydro-7H,13H-pyridazino[1′,6′:4,5][1,2,4]triazino[1,2-a][1,2]diazepine-3,5-dione]
- EC50 [2]: 820 nM
- EC50 [1]: 2100 nM

SMILES: O=C1c2c(O)c(=O)cnn2C(C(c2cccc(Cl)c2)c2cccc(Cl)c2)N2CCCCN12 (centres unmarked) [Example 4, 12-(bis(3-chlorophenyl)methyl)-4-hydroxy-7,8,9,10-tetrahydro-12H-dipyridazino[1,2-a:1′,6′-d][1,2,4]triazine-3,5-dione]
- EC50 [2]: 84 nM
- EC50 [1]: 380 nM

SMILES: O=C1c2c(O)c(=O)cnn2C(C(c2ccccc2)c2ccccc2)C2OCCCN12 (single isomer, unassigned) [Example 19B, 12-benzhydryl-7-hydroxy-3,4,12,12a-tetrahydro-2H-pyridazino[1′,6′:4,5]pyrazino[2,1-b][1,3]oxazine-6,8-dione]
- EC50 [2]: 400 nM
- EC50 [1]: 1900 nM

SMILES: O=C1c2c(O)c(=O)cnn2C(C(c2ccc(Cl)cc2)c2ccc(Cl)cc2)N2CCCCN12 (centres unmarked) [Example 3, 12-(bis(4-chlorophenyl)methyl)-4-hydroxy-7,8,9,10-tetrahydro-12H-dipyridazino[1,2-a:1′,6′-d][1,2,4]triazine-3,5-dione]
- EC50 [2]: 660 nM
- EC50 [1]: 1500 nM

SMILES: O=C1c2c(O)c(=O)cnn2C(C(c2ccccc2)c2ccccc2)N2CCCCN12 (centres unmarked) [Example 1, 12-benzhydryl-4-hydroxy-7,8,9,10-tetrahydro-12H-dipyridazino[1,2-a:1′,6′-d][1,2,4]triazine-3,5-dione]
- EC50 [2]: 220 nM
- EC50 [1]: 1000 nM

SMILES: O=C1c2c(O)c(=O)cnn2[C@H](C(c2ccccc2)c2ccccc2)[C@H]2COCCN12 [Example 18, (10aS,11R)-11-benzhydryl-4-hydroxy-7,8,10a,11-tetrahydro-10H-pyridazino[1′,6′:4,5]pyrazino[2,1-c][1,4]oxazine-3,5-dione]
- EC50 [2]: 4400 nM
- EC50 [1]: 21000 nM

SMILES: O=C1c2c(O)c(=O)cnn2[C@@H](C(c2cccc(F)c2)c2cccc(F)c2)[C@H]2CCCN12 [Example 16, (9aR,10S)-10-(bis(3-fluorophenyl)methyl)-4-hydroxy-8,9,9a,10-tetrahydro-7H-pyrrolo[1′,2′:4,5]pyrazino[1,2-b]pyridazine-3,5-dione]
- EC50 [2]: 110 nM
- EC50 [1]: 440 nM

SMILES: O=C1c2c(O)c(=O)cnn2[C@H]([C@@H](c2ccccc2)c2cccc(Cl)c2)[C@@H]2CCCN12 [Example 17, (9aS,10R)-10-((S)-(3-chlorophenyl)(phenyl)methyl)-4-hydroxy-8,9,9a,10-tetrahydro-7H-pyrrolo[1′,2′:4,5]pyrazino[1,2-b]pyridazine-3,5-dione]
- EC50 [2]: 250 nM
- EC50 [1]: 1500 nM

SMILES: O=C1c2c(O)c(=O)cnn2[C@@H]([C@H](c2ccccc2)c2cccc(F)c2)[C@H]2CCCN12 [Example 14, (9aR,10S)-10-((R)-(3-fluorophenyl)(phenyl)methyl)-4-hydroxy-8,9,9a,10-tetrahydro-7H-pyrrolo[1′,2′:4,5]pyrazino[1,2-b]pyridazine-3,5-dione]
- EC50 [2]: 84 nM
- EC50 [1]: 450 nM

SMILES: O=C1c2c(O)c(=O)cnn2[C@H](C(c2cccc(F)c2)c2cccc(F)c2)[C@H]2CCCN12 [Example 15, (9aR,10R)-10-(bis(3-fluorophenyl)methyl)-4-hydroxy-8,9,9a,10-tetrahydro-7H-pyrrolo[1′,2′:4,5]pyrazino[1,2-b]pyridazine-3,5-dione]
- EC50 [2]: 17000 nM
- EC50 [1]: 30000 nM

SMILES: O=C1c2c(O)c(=O)cnn2[C@@H](C(c2cccc(F)c2)c2cccc(F)c2)N2CCCCN12 [Example 9, (S)-12-(bis(3-fluorophenyl)methyl)-4-hydroxy-7,8,9,10-tetrahydro-12H-dipyridazino[1,2-a:1′,6′-d][1,2,4]triazine-3,5-dione]
- EC50 [2]: 33 nM
- EC50 [1]: 170 nM

SMILES: O=C1c2c(O)c(=O)cnn2C(C(c2ccc(F)cc2)c2ccc(F)cc2)N2CCCCN12 (centres unmarked) [Example 5, 12-(bis(4-fluorophenyl)methyl)-4-hydroxy-7,8,9,10-tetrahydro-12H-dipyridazino[1,2-a:1′,6′-d][1,2,4]triazine-3,5-dione]
- EC50 [2]: 190 nM
- EC50 [1]: 790 nM

SMILES: O=C1c2c(O)c(=O)cnn2C(C(c2cccc(F)c2)c2cccc(F)c2)N2CCCCN12 (centres unmarked) [Example 2, 12-(bis(3-fluorophenyl)methyl)-4-hydroxy-7,8,9,10-tetrahydro-12H-dipyridazino[1,2-a:1′,6′-d][1,2,4]triazine-3,5-dione]
- EC50 [2]: 85 nM
- EC50 [1]: 550 nM
